Laboratory results reported in PMC4336329 (PLoS ONE, 2015).
The whole screen tested about 310,000 compounds, of which about 14,000 (4.5%) showed an effect of 50% or more. Effects have a minus sign here. This is one part of the list.

These molecules were tested against human ether-à-go-go-related gene (hERG) potassium channel (human, UniProt Q12809) (assay: primary screen, population patch clamp on CHO cells stably expressing hERG).
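Note: peak tail current of the secondary pulse compared with the same well before compound.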

human ether-à-go-go-related gene (hERG) potassium channel, sequence (Q12809 whole entry, looked up): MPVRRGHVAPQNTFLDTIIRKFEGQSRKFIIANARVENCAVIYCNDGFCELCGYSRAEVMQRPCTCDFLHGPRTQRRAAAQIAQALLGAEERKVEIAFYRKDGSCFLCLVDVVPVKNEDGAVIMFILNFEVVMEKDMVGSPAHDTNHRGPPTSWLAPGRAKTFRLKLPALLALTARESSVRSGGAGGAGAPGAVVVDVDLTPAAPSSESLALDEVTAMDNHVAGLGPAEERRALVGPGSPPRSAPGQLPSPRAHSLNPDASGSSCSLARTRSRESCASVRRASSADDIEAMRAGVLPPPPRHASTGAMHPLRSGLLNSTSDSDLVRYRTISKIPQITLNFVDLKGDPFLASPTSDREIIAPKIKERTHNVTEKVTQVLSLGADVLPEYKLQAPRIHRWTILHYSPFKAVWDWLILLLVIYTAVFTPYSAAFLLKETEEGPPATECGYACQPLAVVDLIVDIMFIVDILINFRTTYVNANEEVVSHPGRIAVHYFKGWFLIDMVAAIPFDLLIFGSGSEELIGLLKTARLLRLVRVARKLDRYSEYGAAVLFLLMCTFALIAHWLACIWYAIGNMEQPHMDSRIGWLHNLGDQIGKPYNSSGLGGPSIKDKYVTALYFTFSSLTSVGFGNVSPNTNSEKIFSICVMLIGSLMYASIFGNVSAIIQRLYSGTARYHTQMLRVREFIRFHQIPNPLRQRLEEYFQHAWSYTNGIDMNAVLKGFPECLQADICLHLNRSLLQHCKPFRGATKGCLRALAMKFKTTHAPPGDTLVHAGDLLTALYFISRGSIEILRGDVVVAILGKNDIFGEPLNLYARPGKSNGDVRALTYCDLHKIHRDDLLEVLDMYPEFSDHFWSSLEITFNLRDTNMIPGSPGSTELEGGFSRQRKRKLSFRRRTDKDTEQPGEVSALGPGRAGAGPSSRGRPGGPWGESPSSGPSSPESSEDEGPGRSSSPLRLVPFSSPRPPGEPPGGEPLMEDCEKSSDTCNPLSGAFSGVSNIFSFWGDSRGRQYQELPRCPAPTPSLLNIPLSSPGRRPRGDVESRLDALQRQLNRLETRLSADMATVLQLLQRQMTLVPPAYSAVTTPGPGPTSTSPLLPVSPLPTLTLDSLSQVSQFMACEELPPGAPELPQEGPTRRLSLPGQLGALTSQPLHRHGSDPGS

Compared with FC(F)(F)c1cccc(NC(=S)Nc2ccc(Cl)c(Cl)c2)c1, Cc1ccc(NC(=O)N2CCN(c3ncccc3C(F)(F)F)CC2)cc1 is lower in “hERG current change (%, negative = inhibition) at 10uM” value: 21.4% for the first, -15.7% for the second.

Compared with O=Cc1ccc(N2N=C(c3ccccc3)CC2c2ccccc2)cc1 (stereo not drawn), CC(C(=O)Nc1ccccc1Oc1ccccc1)c1ccccc1 (stereo not drawn) is lower in “hERG current change (%, negative = inhibition) at 10uM” value: 24.3% for the first, -19.4% for the second.

First: COc1ccc(NC2CCCN(C(=O)C3=NN(C)C(=O)CC3)C2)cc1OC (stereo not drawn)
Second: COc1ccc(OC)c(C2C(C(C)=O)=C(C)Nc3ncnn32)c1 (stereo not drawn)
The “hERG current change (%, negative = inhibition) at 10uM” value of the first is higher: 53.4% for the first, 11.2% for the second.

Compared with Cc1nn(Cc2noc(C(=O)NCc3ccc4c(c3)OCO4)n2)c(C)c1Br, CCCc1cc(N2CCCC(C(=O)NCc3ccc4c(c3)OCO4)C2)n2ncnc2n1 (stereo not drawn) is lower in “hERG current change (%, negative = inhibition) at 10uM” value: -21.3% for the first, -78.4% for the second.

Going from COC1OC(COC(=O)c2ccccc2)C(OC(=O)c2ccccc2)C1OC(=O)c1ccccc1 (stereo not drawn) to CCN1C(=O)[C@H]2[C@@H](c3ccc(-c4ccccc4)cc3)N3CCC[C@@]3(C(=O)OC)[C@H]2C1=O.O=C(O)C(F)(F)F, the “hERG current change (%, negative = inhibition) at 10uM” value falls from 16.6% to -0.397%.

Going from Cc1cc(SCc2ccccc2Cl)nc(=O)[nH]1 to COc1ccccc1CNC(=O)CSc1nc(C)cs1, the “hERG current change (%, negative = inhibition) at 10uM” value rises from 7.38% to 11.7%.

First: O=C(Nc1cc2c3c(c1)CC(=O)N3CCC2)c1ccco1
Second: O=C(Nc1cccc2c1CCCC2)c1cccc(F)c1
The “hERG current change (%, negative = inhibition) at 10uM” value of the first is lower: -17.8% for the first, 12.5% for the second.

Going from CCOc1ccc(OCCSc2nc3ccccc3[nH]2)cc1 to COc1ccc(CCN(Cc2nc3ccccc3c(=O)[nH]2)C(=O)c2ccco2)cc1, the “hERG current change (%, negative = inhibition) at 10uM” value falls from -0.985% to -7.06%.

Compared with CCOC(=O)c1[nH]c2ccc(OC)cc2c1N=CN(C)C, CCOC(=O)c1c(C)[nH]c(C)c1S(=O)(=O)NCc1ccccc1C is higher in “hERG current change (%, negative = inhibition) at 10uM” value: -7.13% for the first, -5.92% for the second.

Compared with O=C(CCCc1ccccc1)NCc1cccnc1, CCCCC(=O)NNC(=S)NCc1ccccc1 is lower in “hERG current change (%, negative = inhibition) at 10uM” value: 19.2% for the first, 15.5% for the second.

First: Cc1cc(C)c(NC(=O)C(C)Sc2nc3ccc(N4C(=O)c5ccccc5C4=O)cc3s2)c(C)c1 (stereo not drawn)
Second: Cc1cc(C)c(OCC(=O)Nc2nc(-c3ccccn3)cs2)c(C)c1
The “hERG current change (%, negative = inhibition) at 10uM” value of the first is higher: -1.1% for the first, -2.19% for the second.

First: COc1ccc(C(CNC(=O)CNC(=O)c2ccccc2)N2CCCC2)cc1 (stereo not drawn)
Second: COc1ccc(C(=O)N2CCN(c3cccc(Cl)c3)CC2)cc1
The “hERG current change (%, negative = inhibition) at 10uM” value of the first is higher: -13.8% for the first, -36% for the second.

Going from CC1C/C(=C/c2ccccn2)C(=O)/C(=C/c2ccccn2)C1 (stereo not drawn) to Cc1ccc2nc(-c3ccccc3)c(CN3CCOCC3)n2c1, the “hERG current change (%, negative = inhibition) at 10uM” value falls from -9.29% to -12%.

Going from CN1c2ccsc2/C(=N/Nc2ccccc2)CS1(=O)=O to O=S1(=O)c2cccc3cccc(c23)N1CCBr, the “hERG current change (%, negative = inhibition) at 10uM” value falls from 6.46% to -20%.

Going from C=CCC(CC)C(=O)NC(=O)N1CCCc2ccccc21 (stereo not drawn) to CCC(=O)N1CCc2cc(S(=O)(=O)CCC(=O)Nc3cccc(C)n3)ccc21, the “hERG current change (%, negative = inhibition) at 10uM” value falls from 15.8% to -0.596%.

Compared with O=C(/C=C/c1ccccc1)Nc1cccc(C(=O)O)c1, Cc1ccc(NS(=O)(=O)c2cccc(C(=O)Nc3c(C)n(C)n(-c4ccccc4)c3=O)c2)cc1 is lower in “hERG current change (%, negative = inhibition) at 10uM” value: 47.8% for the first, -6% for the second.

Going from O=C(Cn1cc2c(n1)CCCCC2)Nc1c(F)cc(F)cc1Br to N#C/C(C(N)=O)=c1/ccc2c(c1)N1C3=C(CCCC3)CC3CCCCC31N=2 (stereo not drawn), the “hERG current change (%, negative = inhibition) at 10uM” value falls from 5.2% to -8.53%.

Going from CCN(CC)C(=O)c1nc[nH]c1C(=O)N1CCN(C(=O)OC(C)(C)C)CC1 to O=C(/C=C/c1ccc(OC(F)F)cc1)OCC(=O)N1CCN(C(=O)c2ccco2)CC1, the “hERG current change (%, negative = inhibition) at 10uM” value falls from 16.8% to -71%.

Compared with CCN(CC)C(=O)c1ccc(S(=O)(=O)Cc2ccc(C)cc2)c([N+](=O)[O-])c1, CCOC(=O)C1(Cc2ccc(OC)cc2)CCN(C(=O)c2ccc3[nH]ccc3c2)CC1 is lower in “hERG current change (%, negative = inhibition) at 10uM” value: -17.6% for the first, -36% for the second.

First: Cc1ccc(S(=O)(=O)N2CC3(C)CN(S(=O)(=O)c4ccc(C)cc4)CC(C)(C2)C3O)cc1 (stereo not drawn)
Second: COc1ccc(NC(=O)Cn2c(=O)oc3cc(S(=O)(=O)N4CCCC4)ccc32)c(OC)c1
The “hERG current change (%, negative = inhibition) at 10uM” value of the first is lower: 2.88% for the first, 7.38% for the second.

Going from CC(=O)Nc1cccc(NC(=O)CSc2nnc3ccc(-c4cccnc4)nn23)c1 to COC(=O)c1cccc(NC(=O)CSc2nnc(C)n2C)c1, the “hERG current change (%, negative = inhibition) at 10uM” value rises from 13.4% to 26%.

First: CC(C)c1nc(N2CCN(C(=O)c3ccco3)CC2)c(C#N)c2c1COC(C)(C)C2
Second: COc1ccc(N2CCN(C(c3cccs3)C(C)NC(=O)c3ccco3)CC2)cc1 (stereo not drawn)
The “hERG current change (%, negative = inhibition) at 10uM” value of the first is lower: -71.5% for the first, 5.46% for the second.

Compared with CCCOc1ccc(CN(C)c2ncnc(N)n2)cc1, CCOc1ccc(CCNC(=O)COC(=O)c2nc3nc(C)cc(C)n3n2)cc1OCC is lower in “hERG current change (%, negative = inhibition) at 10uM” value: 0.00248% for the first, -15.6% for the second.

Going from N/C(=N\OC(=O)CCC1CCCC1)c1ccncc1 to COc1ccc(Cl)cc1C(=O)NNC(=O)c1ccncc1, the “hERG current change (%, negative = inhibition) at 10uM” value rises from -17.1% to 8.75%.

Going from CCC(=O)N1CCc2cc(S(=O)(=O)NCCC(=O)N3CCN(c4cccc(OC)c4)CC3)ccc21 to CCOC(=O)N1CCN(c2c(N3CCc4ccccc4C3)c(=O)c2=O)CC1, the “hERG current change (%, negative = inhibition) at 10uM” value falls from 0.127% to -34.8%.

First: CC1(C)C(=O)NCCN1C(=O)CC1C(=O)NCCN1CC(c1ccccc1)c1ccccc1 (stereo not drawn)
Second: O=C(C1CCN(S(=O)(=O)c2ccccc2)CC1)N1CCN(Cc2ccccc2)CC1
The “hERG current change (%, negative = inhibition) at 10uM” value of the first is lower: 12% for the first, 12.9% for the second.

Going from CCCC12CN3CCN(CC(C3)/C1=N\NC(=O)c1ccc(F)cc1)C2 to O=C(CCCN1CCC(C(=O)c2ccc(F)cc2)CC1)c1ccc(F)cc1, the “hERG current change (%, negative = inhibition) at 10uM” value falls from -1.38% to -78.5%.

Compared with Cc1ccc(-c2nn(-c3ccccc3)cc2/C=N/NC(=O)c2ccc3c(c2)OCO3)cc1, Cc1nn(-c2ccccc2)c2c1C1(C(=O)N(C)c3ccccc31)C(C#N)=C(N)O2 (stereo not drawn) is lower in “hERG current change (%, negative = inhibition) at 10uM” value: 17.2% for the first, 11.6% for the second.

Going from COc1ccc(OC)c(-n2cnc3cc(C(=O)NCCCN4CCOCC4)ccc32)c1 to COc1ccc(C(=O)Nc2ccc3oc(-c4cccc(F)c4)nc3c2)cc1OC, the “hERG current change (%, negative = inhibition) at 10uM” value rises from -2.93% to -1.26%.

First: Cl.OCCN1CCN(CC(O)COc2ccc(Cl)cc2)CC1 (stereo not drawn)
Second: O=C(CCN1C(=O)COc2ccccc21)NCCCN1CCc2ccccc2C1
The “hERG current change (%, negative = inhibition) at 10uM” value of the first is lower: -20.6% for the first, -15.4% for the second.

Going from COc1ccccc1NC(=O)/C(=N/OCc1ccc(C#N)cc1)C(C)=O to CC(C)(C)c1ccc(NC(=O)C(=O)C2C(=O)Nc3ccccc32)cc1 (stereo not drawn), the “hERG current change (%, negative = inhibition) at 10uM” value rises from -18.2% to -5.17%.

Going from Cn1c(N)c(C(=O)COC(=O)CSc2cccc3cccc(Cl)c23)c(=O)n(C)c1=O to CCOC(=O)CSc1nnc(CSc2nc(N)c3c(C)c(C)sc3n2)n1-c1ccccc1, the “hERG current change (%, negative = inhibition) at 10uM” value falls from 6.01% to -7.72%.

Going from Cc1csc(NC(=O)CN2C(=O)C3CC=CCC3C2=O)n1 (stereo not drawn) to CCn1c(C)cc(/C=C2\NC(=O)N(CC(=O)Nc3ccc(F)cc3)C2=O)c1C, the “hERG current change (%, negative = inhibition) at 10uM” value rises from -0.744% to 13.3%.

Compared with CC(C)(C)n1ncc2c(=O)n(CC(=O)c3ccccc3)cnc21, COC(=O)C(Cc1cncn1COCc1ccccc1)NC(=O)OC(C)(C)C (stereo not drawn) is higher in “hERG current change (%, negative = inhibition) at 10uM” value: -10.4% for the first, 10.3% for the second.

Compared with CC(C)N1CC(C(=O)Nc2ccc(Br)c(Cl)c2)CC1=O (stereo not drawn), Cc1cccc(NC(=O)C2C3CCC4C(CCC32)C4(Cl)Cl)c1 (stereo not drawn) is higher in “hERG current change (%, negative = inhibition) at 10uM” value: -2.34% for the first, 2.1% for the second.

Compared with CC(C)(C)c1ccc(CN2C(=O)CSC2=O)cc1, COC(=O)c1sccc1NC(=O)Nc1ccc(C)c(C)c1 is lower in “hERG current change (%, negative = inhibition) at 10uM” value: 11.8% for the first, 2.3% for the second.

Compared with CC1=CC(C)(C)n2c(O)c(N=NC(N)=S)c3cc(C)cc1c32, Cc1cc(Cl)c(S(=O)(=O)N2CCCC2)cc1OCC(N)=O is lower in “hERG current change (%, negative = inhibition) at 10uM” value: 14.2% for the first, 5.11% for the second.

Compared with COc1ccc(-c2nn(CCC#N)cc2C(=O)NCc2ccccc2)cc1OC, CC(Sc1nc2c([nH]c3ccccc32)c(=O)n1C)c1ccccc1 (stereo not drawn) is higher in “hERG current change (%, negative = inhibition) at 10uM” value: -42.3% for the first, 17.5% for the second.

First: O=C(COC(=O)C1CCN(c2ccc(C(F)(F)F)cn2)CC1)c1ccc(F)cc1
Second: Cc1ccc(N(C(=O)CNC(=O)c2ccco2)C(C(=O)NC2CCCCC2)c2cccnc2)cc1 (stereo not drawn)
The “hERG current change (%, negative = inhibition) at 10uM” value of the first is higher: -0.831% for the first, -12.2% for the second.

Compared with COc1ccc(C(C(=O)NC2CCCCC2)N(C(=O)CCCC(=O)Nc2ccccn2)c2ccc3c(c2)OCCO3)cc1 (stereo not drawn), CC1CCN(c2ccc3c(c2)S(=O)(=O)c2cccc(C(=O)NC4CCCCC4)c2C3=O)CC1 is higher in “hERG current change (%, negative = inhibition) at 10uM” value: -15.5% for the first, 0.473% for the second.

Compared with C=CCC(C)(NCc1ccccc1)c1ccccc1.Cl (stereo not drawn), Cl.c1ccc(-c2nc(NCc3ccco3)c3oc4ccccc4c3n2)cc1 is higher in “hERG current change (%, negative = inhibition) at 10uM” value: -36.4% for the first, 12.9% for the second.

Compared with CCC(=O)N(c1nnc(SCC(=O)Nc2ccccc2Cl)s1)C1CC1, CCCCCCNC(=O)CSc1nccn1Cc1ccccc1 is lower in “hERG current change (%, negative = inhibition) at 10uM” value: -4.24% for the first, -20.2% for the second.

Going from O=C1C=C(Nc2cccc(Cl)c2)CC(c2ccco2)C1 (stereo not drawn) to CCNC(=S)N/N=C/c1ccccc1[N+](=O)[O-], the “hERG current change (%, negative = inhibition) at 10uM” value rises from -4.15% to 18.6%.

In the case of CN(C)C1=NCCN1CC1CCCCC1, the “hERG current change (%, negative = inhibition) at 10uM” value is reported as 9.89%.
